Measured values taken from publication PMC9911399, “Two distinct binding modes provide the RNA-binding protein RbFox with extraordinary sequence specificity”.
Where a chain is given by its changes, count along the chain named. This is one part of the list.

T1: RBFOX1 RRM (Homo sapiens, UniProt Q9NWB1 109-208)
T1 sequence: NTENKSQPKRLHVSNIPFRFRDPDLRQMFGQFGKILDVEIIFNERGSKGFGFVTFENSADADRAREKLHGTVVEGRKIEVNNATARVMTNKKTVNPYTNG

B1: UAGCCCC (DNA:RNA)
RNA: GGGAGACCGGAAUUCAGAUUGUCCUAGCCCCUUAAAUCCCGUCGUAGCCACCA
DNA 1: CAATCTGAATTCCGGTCTCCC
DNA 2: TGGTGGCTACGACGGGATT
B2: CUCAGAU (DNA:RNA)
RNA: GGGAGACCGGAAUUCAGAUUGUCCCUCAGAUUUAAAUCCCGUCGUAGCCACCA
DNA 1: CAATCTGAATTCCGGTCTCCC
DNA 2: TGGTGGCTACGACGGGATT
B3: UACACAU (DNA:RNA)
RNA: B2 RNA with C25U, U26A, G29C
DNA 1: CAATCTGAATTCCGGTCTCCC
DNA 2: TGGTGGCTACGACGGGATT
B4: UACACCG (DNA:RNA)
RNA: B1 RNA with G27C, C28A, C31G
DNA 1: CAATCTGAATTCCGGTCTCCC
DNA 2: TGGTGGCTACGACGGGATT
B5: UAUUGAG (DNA:RNA)
RNA: B2 RNA with C25U, U26A, C27U, A28U, U31G
DNA 1: CAATCTGAATTCCGGTCTCCC
DNA 2: TGGTGGCTACGACGGGATT
B6: AGAACCU (DNA:RNA)
RNA: B2 RNA with C25A, U26G, C27A, G29C, A30C
DNA 1: CAATCTGAATTCCGGTCTCCC
DNA 2: TGGTGGCTACGACGGGATT
B7: CCAAUAA (DNA:RNA)
RNA: B2 RNA with U26C, C27A, G29U, U31A
DNA 1: CAATCTGAATTCCGGTCTCCC
DNA 2: TGGTGGCTACGACGGGATT
B8: UAUACGC (DNA:RNA)
RNA: B1 RNA with G27U, C28A, C30G
DNA 1: CAATCTGAATTCCGGTCTCCC
DNA 2: TGGTGGCTACGACGGGATT
B9: GGAAGAU (DNA:RNA)
RNA: B2 RNA with C25G, U26G, C27A
DNA 1: CAATCTGAATTCCGGTCTCCC
DNA 2: TGGTGGCTACGACGGGATT
B10: UUUCGUC (DNA:RNA)
RNA: B1 RNA with A26U, G27U, C29G, C30U
DNA 1: CAATCTGAATTCCGGTCTCCC
DNA 2: TGGTGGCTACGACGGGATT
B11: AUUUCGA (DNA:RNA)
RNA: B2 RNA with C25A, C27U, A28U, G29C, A30G, U31A
DNA 1: CAATCTGAATTCCGGTCTCCC
DNA 2: TGGTGGCTACGACGGGATT
B12: UCCUUCC (DNA:RNA)
RNA: B1 RNA with A26C, G27C, C28U, C29U
DNA 1: CAATCTGAATTCCGGTCTCCC
DNA 2: TGGTGGCTACGACGGGATT
B13: CCUGAUA (DNA:RNA)
RNA: B2 RNA with U26C, C27U, A28G, G29A, A30U, U31A
DNA 1: CAATCTGAATTCCGGTCTCCC
DNA 2: TGGTGGCTACGACGGGATT
B14: UACCGGC (DNA:RNA)
RNA: B1 RNA with G27C, C29G, C30G
DNA 1: CAATCTGAATTCCGGTCTCCC
DNA 2: TGGTGGCTACGACGGGATT
B15: GCCCGGC (DNA:RNA)
RNA: B2 RNA with C25G, U26C, A28C, A30G, U31C
DNA 1: CAATCTGAATTCCGGTCTCCC
DNA 2: TGGTGGCTACGACGGGATT
B16: UCCCGGU (DNA:RNA)
RNA: B2 RNA with C25U, U26C, A28C, A30G
DNA 1: CAATCTGAATTCCGGTCTCCC
DNA 2: TGGTGGCTACGACGGGATT
B17: AACAACA (DNA:RNA)
RNA: B2 RNA with C25A, U26A, G29A, A30C, U31A
DNA 1: CAATCTGAATTCCGGTCTCCC
DNA 2: TGGTGGCTACGACGGGATT
B18: UUUCAUA (DNA:RNA)
RNA: B1 RNA with A26U, G27U, C29A, C30U, C31A
DNA 1: CAATCTGAATTCCGGTCTCCC
DNA 2: TGGTGGCTACGACGGGATT
B19: UAACUCA (DNA:RNA)
RNA: B1 RNA with G27A, C29U, C31A
DNA 1: CAATCTGAATTCCGGTCTCCC
DNA 2: TGGTGGCTACGACGGGATT
B20: GAGCAUC (DNA:RNA)
RNA: B1 RNA with U25G, C29A, C30U
DNA 1: CAATCTGAATTCCGGTCTCCC
DNA 2: TGGTGGCTACGACGGGATT
B21: AAUCCAU (DNA:RNA)
RNA: B1 RNA with U25A, G27U, C30A, C31U
DNA 1: CAATCTGAATTCCGGTCTCCC
DNA 2: TGGTGGCTACGACGGGATT
B22: AUGUUCU (DNA:RNA)
RNA: B2 RNA with C25A, C27G, A28U, G29U, A30C
DNA 1: CAATCTGAATTCCGGTCTCCC
DNA 2: TGGTGGCTACGACGGGATT
B23: GAUGAGU (DNA:RNA)
RNA: B2 RNA with C25G, U26A, C27U, A28G, G29A, A30G
DNA 1: CAATCTGAATTCCGGTCTCCC
DNA 2: TGGTGGCTACGACGGGATT
B24: AUUCAUC (DNA:RNA)
RNA: B1 RNA with U25A, A26U, G27U, C29A, C30U
DNA 1: CAATCTGAATTCCGGTCTCCC
DNA 2: TGGTGGCTACGACGGGATT
B25: ACUAGCA (DNA:RNA)
RNA: B2 RNA with C25A, U26C, C27U, A30C, U31A
DNA 1: CAATCTGAATTCCGGTCTCCC
DNA 2: TGGTGGCTACGACGGGATT
B26: CACUAUC (DNA:RNA)
RNA: B2 RNA with U26A, A28U, G29A, A30U, U31C
DNA 1: CAATCTGAATTCCGGTCTCCC
DNA 2: TGGTGGCTACGACGGGATT
B27: ACAGACU (DNA:RNA)
RNA: B2 RNA with C25A, U26C, C27A, A28G, G29A, A30C
DNA 1: CAATCTGAATTCCGGTCTCCC
DNA 2: TGGTGGCTACGACGGGATT
B28: GCUUGAC (DNA:RNA)
RNA: B2 RNA with C25G, U26C, C27U, A28U, U31C
DNA 1: CAATCTGAATTCCGGTCTCCC
DNA 2: TGGTGGCTACGACGGGATT
B29: AGUGAUC (DNA:RNA)
RNA: B1 RNA with U25A, A26G, G27U, C28G, C29A, C30U
DNA 1: CAATCTGAATTCCGGTCTCCC
DNA 2: TGGTGGCTACGACGGGATT
B30: AAGGUAC (DNA:RNA)
RNA: B1 RNA with U25A, C28G, C29U, C30A
DNA 1: CAATCTGAATTCCGGTCTCCC
DNA 2: TGGTGGCTACGACGGGATT
B31: AGCGACC (DNA:RNA)
RNA: B1 RNA with U25A, A26G, G27C, C28G, C29A
DNA 1: CAATCTGAATTCCGGTCTCCC
DNA 2: TGGTGGCTACGACGGGATT

Target: T1, RBFOX1 RRM
Assay: EMSA; HiTS-Eq, 1 nM pool, 10 min; buffer printed only for the single-RNA assays: 10 mM Tris pH 7.5, 150 mM NaCl, 3.4 mM EDTA, 0.001% NP-40, 30 C
Settings: tags: His6 N-terminal (pET28a); label: 5' 32P
Procedure, shortened: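 Purified RbFox RRM, wild type or mutant, was incubated for 10 min in 50 µL with 1 nM of a 5′-radiolabelled RNA pool carrying 7 randomized nucleotides, whose flanks were annealed to DNA oligonucleotides, over a series of increasing protein concentrations. Unbound RNA was resolved on 8% native PAGE, cut out, reverse-transcribed, barcoded by PCR and sequenced on an Illumina HiSeq 2500. Relative association constants were derived from changes in read counts for each RNA species versus the control reaction and normalised to the cognate motif.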

Point of comparison: B23, binding signal 0.0163 KA relative to UGCAUGU. Against it:
- B1 — lower, 0.00616 KA relative to UGCAUGU
- B2 — lower, 0.00677 KA relative to UGCAUGU
- B3 — lower, 0.000378 KA relative to UGCAUGU
- B4 — lower, 0.00458 KA relative to UGCAUGU
- B5 — higher, 0.0205 KA relative to UGCAUGU
- B6 — lower, 0.00339 KA relative to UGCAUGU
- B7 — lower, 0.00155 KA relative to UGCAUGU
- B8 — lower, 0.00682 KA relative to UGCAUGU
- B9 — lower, 0.0142 KA relative to UGCAUGU
- B10 — lower, 0.0145 KA relative to UGCAUGU
- B11 — lower, 0.00963 KA relative to UGCAUGU
- B12 — lower, 0.00163 KA relative to UGCAUGU
- B13 — lower, 0.00741 KA relative to UGCAUGU
- B14 — lower, 0.00859 KA relative to UGCAUGU
- B15 — higher, 0.019 KA relative to UGCAUGU
- B16 — lower, 0.00796 KA relative to UGCAUGU
- B17 — lower, 0.000963 KA relative to UGCAUGU
- B18 — lower, 0.0017 KA relative to UGCAUGU
- B19 — lower, 0.00212 KA relative to UGCAUGU
- B20 — higher, 0.018 KA relative to UGCAUGU
- B21 — lower, 0.00103 KA relative to UGCAUGU
- B22 — lower, 0.0115 KA relative to UGCAUGU
- B24 — lower, 0.000479 KA relative to UGCAUGU
- B25 — lower, 0.0108 KA relative to UGCAUGU
- B26 — lower, 0.00222 KA relative to UGCAUGU
- B27 — lower, 0.00134 KA relative to UGCAUGU
- B28 — higher, 0.0267 KA relative to UGCAUGU
- B29 — lower, 0.0108 KA relative to UGCAUGU
- B30 — lower, 0.00764 KA relative to UGCAUGU
- B31 — lower, 0.0119 KA relative to UGCAUGU
